# Measurements taken from publication PMC4336329 (PLoS ONE, 2015).
# The whole screen tested about 310,000 compounds, of which about 14,000 (4.5%) showed an effect of 50% or more. The effect is printed as a negative number. The list shows a part of the results.
# Target: human ether-à-go-go-related gene (hERG) potassium channel (human, UniProt Q12809)
# Assay: primary screen, population patch clamp on CHO cells stably expressing hERG
# 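Further: peak tail current of the secondary pulse compared with the same well before compound.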
# human ether-à-go-go-related gene (hERG) potassium channel, sequence (Q12809 whole entry, looked up): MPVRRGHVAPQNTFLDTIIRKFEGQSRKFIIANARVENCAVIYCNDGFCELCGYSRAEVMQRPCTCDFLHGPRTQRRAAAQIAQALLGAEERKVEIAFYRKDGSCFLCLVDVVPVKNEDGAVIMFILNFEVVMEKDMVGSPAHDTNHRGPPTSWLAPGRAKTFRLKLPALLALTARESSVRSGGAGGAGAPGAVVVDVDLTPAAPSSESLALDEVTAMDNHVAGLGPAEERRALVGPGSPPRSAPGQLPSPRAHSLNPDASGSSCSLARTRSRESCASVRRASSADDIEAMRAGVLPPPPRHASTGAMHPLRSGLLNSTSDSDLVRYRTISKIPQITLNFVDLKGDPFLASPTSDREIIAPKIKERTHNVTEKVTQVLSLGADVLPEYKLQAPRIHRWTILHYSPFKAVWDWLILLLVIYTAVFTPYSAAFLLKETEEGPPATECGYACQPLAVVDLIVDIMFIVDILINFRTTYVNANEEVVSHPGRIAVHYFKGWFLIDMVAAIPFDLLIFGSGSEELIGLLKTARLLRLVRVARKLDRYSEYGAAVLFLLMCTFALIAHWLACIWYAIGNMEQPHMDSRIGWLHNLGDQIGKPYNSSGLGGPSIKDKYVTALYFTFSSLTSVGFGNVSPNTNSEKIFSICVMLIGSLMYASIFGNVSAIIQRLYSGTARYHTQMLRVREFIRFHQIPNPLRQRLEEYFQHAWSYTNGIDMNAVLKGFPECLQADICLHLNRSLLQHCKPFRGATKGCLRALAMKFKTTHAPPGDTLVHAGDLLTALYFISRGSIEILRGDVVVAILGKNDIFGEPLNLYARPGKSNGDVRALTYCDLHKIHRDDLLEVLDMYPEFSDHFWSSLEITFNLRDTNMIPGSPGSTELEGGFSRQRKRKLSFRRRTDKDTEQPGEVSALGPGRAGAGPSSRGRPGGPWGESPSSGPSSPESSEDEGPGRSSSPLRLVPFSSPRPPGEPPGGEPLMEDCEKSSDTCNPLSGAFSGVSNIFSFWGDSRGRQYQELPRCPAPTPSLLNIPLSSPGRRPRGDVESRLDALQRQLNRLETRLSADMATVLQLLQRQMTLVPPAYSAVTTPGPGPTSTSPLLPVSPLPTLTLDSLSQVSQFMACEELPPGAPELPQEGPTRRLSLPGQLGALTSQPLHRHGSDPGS
row,SMILES,"hERG current change (%, negative = inhibition) at 10uM [%]"
1,O=C(Nc1ccc(NC(=O)c2cccs2)cc1)c1cccs1,-4.17
2,CCn1cc(C(=O)OCC(=O)N2C(C)CCCC2C)c(=O)c2ccc(C)nc21 (stereo not shown),11
3,CCOc1ccc(NC(=O)CN(C)C(=O)c2cc(S(=O)(=O)N3CCCCC3)ccc2C)cc1OCC,-16.3
4,COc1ccc(S(=O)(=O)N2c3ccccc3OCC2C)cc1 (stereo not shown),-2.26
5,Cc1cc(NC(=O)CSc2nc3ccccc3[nH]2)no1,8.42
6,Cc1ccccc1NC(=O)c1cc2ccccn2n1,-6.58
7,CCCCCC(=O)Nc1ccc2oc(-c3cncc(Br)c3)nc2c1,17.6
8,CCOc1cc(/C=C2\C(=N)N3N=C(N4CCCCC4)SC3=NC2=O)ccc1OC(=O)c1ccco1,18.6
9,COc1cccc(CN2CCNC(=O)C2CC(=O)NCCOc2cccnc2)c1OC (stereo not shown),14.3
10,Cn1cc(Br)c(C(=O)NNC(=O)Nc2ccccc2C(F)(F)F)n1,19.7
11,CC1(C)Cc2cccc(OCC(=O)NCc3ccccc3)c2O1,0.186
12,NC(=O)c1ccccc1Nc1nc2nc3ccccc3c(=O)n2cc1Br,9.58
13,CN(C)CCCNC(=S)Nc1ccc(-c2ccccc2)cc1,-46
14,Cc1ccc(S(=O)(=O)Oc2ccc(/C=N/NC(=O)c3c(Cl)cnn3C)cc2)cc1,-8.14
15,CC1(C)C=C(c2ccc(C=O)s2)CC(C)(C)N1C=O,-5.94
16,CS(=O)(=O)CCC(C(=O)OCc1ccc(Cl)cc1)N1C(=O)c2ccccc2C1=O (stereo not shown),-28
17,COC(=O)C(C)(C(=O)OC)c1ccc([N+](=O)[O-])cn1,17.8
18,S=c1[nH]nc(-c2ccccc2)n1/N=C/c1c[nH]c2ccccc12,12.1
19,O=C(c1ccco1)N1CCN(C(=O)c2cc3cc([N+](=O)[O-])ccc3oc2=O)CC1,-52.4
20,Cc1ccc(CN(C)C(=O)CN2C(=O)NC3(CCCC3)C2=O)o1,21.7
21,Cc1nc2ccccc2n1CC(=O)c1ccc(O)c(O)c1.Cl,1.7
22,NC(=O)NC(c1ccccc1)c1cccc2ccccc12 (stereo not shown),-18.3

row,SMILES,"hERG current change (%, negative = inhibition) at 10uM [%]"
1,O=[N+]([O-])c1ccc(O)c(/C=N/Nc2nc3ccccc3[nH]2)c1,-14.4
2,CCN(CC)CCNC(=O)C(C)c1nn(C)c(=O)c2ccccc12 (stereo not shown),8.67
3,O=C(CN1C(=O)CSC1=O)Nc1ccccc1F,6.3
4,CCOC(=O)c1ccc2[nH]c3c(c2c1)CN(C)CC3,-41.7
5,COc1ccccc1NCC(=O)N/N=C/c1sccc1C,14.2
6,O=C(CC1C(=O)NCCN1Cc1c(F)cccc1Cl)NCCc1ccccn1 (stereo not shown),13.2
7,COc1ccc([C@@H](OC)[C@@]2(Cc3ccc(O)cc3)N=C(N)N(C)C2=O)cc1,1.37
8,CCCC(c1nnnn1C1CCCCC1)N1CCN(C(=O)c2ccco2)CC1.Cl (stereo not shown),-23.7
9,O=C(/C=C/c1ccccc1[N+](=O)[O-])NCc1ccncc1,-18.8
10,O=C(CCNC(=O)c1ccc(Cl)cc1)Nc1ccccc1N1CCCC1,-12.4
11,C/C(=N\NC(=O)C1CC1(C)c1ccccc1)c1ccco1 (stereo not shown),-1.43
12,COc1ccc(-c2cc3ccccc3oc2=O)cc1NC(=O)c1ccc([N+](=O)[O-])o1,5.86
13,C/C(=N\NC(=O)Cc1ccccc1)c1cccs1,-4.86
14,O=C(COc1cccc(Cl)c1)N/N=C\c1cc2ccccc2nc1Cl,7.39
15,Cc1cccc(NCc2cc(Cl)cc(Cl)c2O)n1,-3.97
16,Cc1cc(C)c2c(Cn3ccnc3)cc(=O)oc2c1,1.13
17,CC1CCC(NC(=O)Cn2c(=O)[nH]c3ccsc3c2=O)CC1 (stereo not shown),10.1
18,CCn1c(=NC(=O)c2ccc(S(=O)(=O)N(C)C)cc2)sc2cccc(OC)c21,12.8
19,COc1cc2c(cc1O)[C@@H]1Cc3ccc(OC)c(O)c3CN1CC2,-13.6
20,O=C(c1cc(-c2ccccc2)n[nH]1)N1CCc2c([nH]c3ccccc23)C1c1ccccn1 (stereo not shown),14.5
21,CCOC(=O)c1nc(C)nc(Sc2n[nH]c(-c3ccc(C(C)(C)C)cc3)n2)c1C,-8.96
22,O=[N+]([O-])c1ccc(-n2nnnc2CN2CCOCC2)cc1,16.9

row,SMILES,"hERG current change (%, negative = inhibition) at 10uM [%]"
1,CSCCC(NC(=O)COc1cccc2ccccc12)C(=O)O (stereo not shown),0.83
2,O=C(CSc1nnc2scc(-c3ccccc3)n12)N1CCN(Cc2ccccc2)CC1,-41.8
3,Cc1ccccc1-c1nnn(CC(=O)Nc2ccc3c(c2)OCO3)n1,7.52
4,Fc1c(F)c(-n2nnc3ccccc32)c(F)c(F)c1Cl,16.6
5,Oc1ccc(-c2n[nH]c(=S)n2-c2ccc3c(c2)OCCO3)c(O)c1,24.7
6,CC(=O)Nc1ccc(NC(=O)C(C)OC(=O)c2cccc(S(=O)(=O)N3CCCCCC3)c2)cc1 (stereo not shown),4.63
7,COc1cccc(C(=O)OCCN(C)C(C)(C)C)c1.Cl,-6.81
8,Cc1ccc(N(C)C(=O)C2CCCN2S(=O)(=O)c2ccc3c(c2)n(C)c(=O)c(=O)n3C)cc1 (stereo not shown),-2.28
9,COc1ccc(C2=NOC(C(=O)N3CCN(C(=O)c4ccco4)CC3)C2)cc1OC (stereo not shown),0.127
10,CC(=O)c1cccc(NC(=O)CN(c2ccc(F)cc2)S(C)(=O)=O)c1,-2.75
11,Cc1ccc(S(=O)(=O)NP(=O)(Oc2ccccc2)Oc2ccccc2)cc1,-3.7
12,CCOC(=O)Cn1c(=O)c2c(nc(N3CCCCC3)n2C)n(C)c1=O,-4.44
13,COc1ccccc1NC(=O)NNC(=O)c1ccc2ccccc2c1O,-5.57
14,O=C1C2C3CCC(O3)C2C(=O)N1c1cccc(F)c1 (stereo not shown),5.53
15,O=C(NCCC1CCCCN1S(=O)(=O)c1ccc(F)cc1)C(=O)NCc1ccncc1 (stereo not shown),-25
16,O=[N+]([O-])c1ccc(Sc2n[nH]c(-c3ccco3)n2)nc1,-0.59
17,N#Cc1ccc(-c2csc(NC(=O)c3ccc(N4C(=O)CCC4=O)cc3)n2)cc1,-11
18,Cc1ccc(C(=O)N/C(=C/C=C/c2ccccc2)C(=O)NCc2ccco2)cc1,-28.9
19,COc1ccccc1CN=Cc1[nH]c2ccc(Br)c(Cl)c2c1O,13.5
20,Cn1c(CNC(=O)c2ccc(F)cc2)nc2ccccc21,-4.56
21,O=C(CCc1nnc(-c2ccc3c(c2)OCO3)o1)N1CCC(c2ccc(F)cc2)C1 (stereo not shown),-56
22,O=C1C2C3C=CC(C3)C2C(=O)N1CCCO (stereo not shown),-3.34

row,SMILES,"hERG current change (%, negative = inhibition) at 10uM [%]"
1,O=C(COC(=O)c1cccs1)Nc1cccc(S(=O)(=O)N2CCOCC2)c1,-26.5
2,COc1cc(C(=O)NCC(=O)OCC(=O)Nc2ncc(Cl)cc2Cl)cc(OC)c1OC,4.85
3,COc1ccc(CNC(=O)CN2C(=O)COc3ccc(S(=O)(=O)N4CCCCC4)cc32)cc1,-16.2
4,CNC(=O)C1=C(C)NC(=S)NC1c1cc2c(cc1OC)CCCC2 (stereo not shown),-3.1
5,O=C1CCC(=O)N1CC(=O)N1CCCc2ccccc21,13.8
6,Cc1nccn1-c1ccc(C=O)cc1,13.4
7,COC(=O)c1cccc(C(=O)N2CCCC(C(=O)c3cc(F)ccc3F)C2)c1 (stereo not shown),-21
8,CC(=O)OC1CCC(OC(C)=O)c2c1n([O-])c(C)c(C)[n+]2=O (stereo not shown),3.92
9,Cc1cc(C)c(N=Cc2c(O)c3ccccc3oc2=O)c(C)c1,21.3
10,CS(=O)(=O)N(CC(=O)N1CCN(Cc2ccccc2)CC1)Cc1ccccc1,-8.61
11,Cn1c(=O)c2c(nc(Br)n2Cc2ccccc2Cl)n(C)c1=O,10.4
12,CCOC(=O)NC1(C(F)(F)F)C(=O)NC(C)=C1C#N (stereo not shown),-4.27
13,CCCCSc1nc2[nH]ncc2c(=O)[nH]1,8.6
14,CC(C)(c1ccccc1)c1ccc(OCCn2cnc3ccccc3c2=O)cc1.O=C(O)C(=O)O,11.1
15,Cc1ccc(N(Cc2cc3cccc(C)c3[nH]c2=O)S(=O)(=O)c2ccccc2)c(C)c1,-2.6
16,Cc1c(C(=O)O)cccc1[N+](=O)[O-],21.8
17,CC1Cc2nc(SCC(=O)NCc3ccccc3)n(Cc3ccccc3)c(=O)c2S1 (stereo not shown),-47.2
18,CCCc1nc2c(s1)CCc1onc(-c3cccc([N+](=O)[O-])c3)c1-2,16.1
19,O=C(C1CCN(S(=O)(=O)c2cnc[nH]2)CC1)N(CCc1ccccc1)Cc1ccccc1,-1.77
20,CCSc1nc2ccccc2n1Cc1cccc([N+](=O)[O-])c1,-69.7
21,O=C(c1ccc(CN2CCOCC2)cc1)N1CCN(c2cccc(Cl)c2)CC1,-22.2
22,COc1ccc(-c2noc(-c3cccs3)n2)cc1OC,18.6
